42 sequences from PMC7819943, “Rice protein-binding microarrays: a tool to detect cis-acting elements near promoter regions in rice” can be followed below.

Some of the results follow.

The assay has as its target T1, OsWOX13 (Oryza sativa, UniProt Q5QMM3 1-267).
T1 sequence: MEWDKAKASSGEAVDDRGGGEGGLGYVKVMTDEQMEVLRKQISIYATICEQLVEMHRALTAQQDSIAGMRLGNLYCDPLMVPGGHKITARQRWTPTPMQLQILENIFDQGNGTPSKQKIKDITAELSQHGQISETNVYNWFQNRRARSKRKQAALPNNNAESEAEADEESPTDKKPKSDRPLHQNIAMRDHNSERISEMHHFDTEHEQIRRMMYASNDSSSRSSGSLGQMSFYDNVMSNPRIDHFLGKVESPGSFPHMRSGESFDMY
The assay is described as follows: protein-binding microarray (RPBM); PBS, 2% BSA, 51.3 ng/ul salmon testes DNA, 50 uM zinc acetate, 200 nM TF, 25 C, 1 h; high values mean tight binding. To be noted: protein: recombinant; tags: N-terminal polyhistidine and DsRed monomer fusion (pET32a); label: CyDye5-dUTP incorporated in the synthesized complementary strand; 3' TTTTT single-stranded linker to array surface; dsDNA, one strand shown. Put shortly:
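The binding signal is fluorescence intensity per array feature (arbitrary units). Readings came from an Axon 4000B scanner after a washed, 2% BSA-blocked, double-stranded custom Agilent array had been incubated for 1 h at 25 °C with 200 nM protein and 50 µM zinc acetate. The protein was a Ni–NTA-purified transcription factor fused N-terminally to polyhistidine and DsRed, expressed in E. coli BL21-CodonPlus.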
For “GTAAAGTTATTGCAAAATTTAAAATTACGTTGTCATTGTACGGAGTCACCTAGTGCAG”, the binding signal was 3930 fluorescence intensity (a.u.). In the case of “ATGCCTAATTAATAGATAACTGTCATGTCGCATCCTTCTTCGGAGTCACCTAGTGCAG”, the binding signal is 28700 fluorescence intensity (a.u.). The same measure for “CTCTGATTGGTTACAAACTTTATAGTTCTTTAGGGAGGCTCGGAGTCACCTAGTGCAG”: 49700 fluorescence intensity (a.u.). As for “CATTTAATGATTAATTTATTATTTAAATATTATTGAAATGCGGAGTCACCTAGTGCAG”, the binding signal is 50700 fluorescence intensity (a.u.). As for “CATAACACACGACAATTGACAAGCGAAACGCCATGGGAAACGGAGTCACCTAGTGCAG”, the binding signal was 6850 fluorescence intensity (a.u.). Regarding “GTCAATTACCAAGTTCATTCATAATTTGAAGTTACGGGCACGGAGTCACCTAGTGCAG”, the binding signal was 10800 fluorescence intensity (a.u.). With “ATAATTGAAGAAAGCTCGATTGGTTTCTTAGTTTCTAGATCGGAGTCACCTAGTGCAG”, the binding signal was 19000 fluorescence intensity (a.u.). The same measure for “GAGATTAGTTGATTTAGATTTTGAATTGTGCAAAACCGTTCGGAGTCACCTAGTGCAG”: 32000 fluorescence intensity (a.u.). In the case of “ATAAAAGATATGATTGAGATCAACAGCGAAATGACAAAATCGGAGTCACCTAGTGCAG”, the binding signal is 20600 fluorescence intensity (a.u.). For the sequence “GGTTAACGAGATGATAATCGTCCCATGACTTGGAACAAATCGGAGTCACCTAGTGCAG”, the binding signal was 5240 fluorescence intensity (a.u.). For the sequence “CTTCAAGTTTAACTAAACATAAATTGATCATTATCAAAATCGGAGTCACCTAGTGCAG”, the binding signal is 7200 fluorescence intensity (a.u.). Turning to “TTTTAGGTACCACTGTCTACTATGACAACAGTGATGGTCGCGGAGTCACCTAGTGCAG”, the binding signal was 8250 fluorescence intensity (a.u.). Turning to “ATGCTCGTGATTACTTCGCCAATCTTAAAATATATTACCCCGGAGTCACCTAGTGCAG”, the binding signal is 16600 fluorescence intensity (a.u.).

As to “TCGCAGACTGAATTTTCATTGTAAGGTACGTATAGCTGGTCGGAGTCACCTAGTGCAG”, the binding signal is 3330 fluorescence intensity (a.u.). For “ATATTATATACTAAATTAACTTATTTTGAATTGGAGGATCCGGAGTCACCTAGTGCAG”, the binding signal was 3590 fluorescence intensity (a.u.). With “CATTTTGTAATTTGCCCTTGAACATGTGTTGTTACAATTTCGGAGTCACCTAGTGCAG”, the binding signal is 3150 fluorescence intensity (a.u.). As for “TTCTTTAATTTCTTCGGTAATTTAAGGCTGCGTAGCGAGTCGGAGTCACCTAGTGCAG”, the binding signal is 26800 fluorescence intensity (a.u.). Regarding “ATAATGTTATCCCTAATCACTGTATTAGTAAATTACCGATCGGAGTCACCTAGTGCAG”, the binding signal is 7820 fluorescence intensity (a.u.). The same measure for “CAGAAATGATTAAAATCTTGGCAGGATACAGGTGTTTTCTCGGAGTCACCTAGTGCAG”: 17100 fluorescence intensity (a.u.). Turning to “TTGACTGAATTTAGGGGCAGAAGGTTTTGTGGTTGATGGACGGAGTCACCTAGTGCAG”, the binding signal was 9600 fluorescence intensity (a.u.). On to “AAACTCACATTTGATTGCAATTTGCTGCAACGTGTACAGTCGGAGTCACCTAGTGCAG”, for which the binding signal was 17700 fluorescence intensity (a.u.). The same measure for “ATATGCAGATATAATAAATTAATTAAATATAGCAGGAGGACGGAGTCACCTAGTGCAG”: 11500 fluorescence intensity (a.u.). For the sequence “GTTAACATCACAGTTTAATCGGAATGCCAAATTAGTATATCGGAGTCACCTAGTGCAG”, the binding signal was 3300 fluorescence intensity (a.u.). On to “AATTCAATTTAAAATATTTTAAGCTAATACTTAATTAATCCGGAGTCACCTAGTGCAG”, for which the binding signal was 10600 fluorescence intensity (a.u.). As for “TTTCAATTATCAACATACTCTTGCGCACATAACCTAGATGCGGAGTCACCTAGTGCAG”, the binding signal was 10500 fluorescence intensity (a.u.). With “AATCTCAAATTATTAGTTTAATTATAAATTTAAAACAATTCGGAGTCACCTAGTGCAG”, the binding signal is 10900 fluorescence intensity (a.u.). As for “AATAATTATCACAAATCCAACTGTTTAGCAATTTAACACACGGAGTCACCTAGTGCAG”, the binding signal is 23800 fluorescence intensity (a.u.). The same measure for “TTTGTTTTCTACTTAATTGACCATACTCCAGTCCTACTCCCGGAGTCACCTAGTGCAG”: 11800 fluorescence intensity (a.u.); for “GTGTTTAATTATATCGACTTTAATTACCTCTCACAAACCACGGAGTCACCTAGTGCAG”: 23600 fluorescence intensity (a.u.). For the sequence “TATAAGTGACAGATCCGAGACGTGGTTCTCGATCCGACGACGGAGTCACCTAGTGCAG”, the binding signal was 3690 fluorescence intensity (a.u.). As for “CATCTAATTTAAATTTAAATGTTTTAAAAGATAGAGACGTCGGAGTCACCTAGTGCAG”, the binding signal was 52400 fluorescence intensity (a.u.). For “CCATTGATTTTAGATGCAACTAATCAAACACTTATCCATGCGGAGTCACCTAGTGCAG”, the binding signal was 30300 fluorescence intensity (a.u.).

“GGTTAATTTTAGCAGTAATCTGAACATGCCCGAAGTCAACCGGAGTCACCTAGTGCAG”: the binding signal is 8970 fluorescence intensity (a.u.). Turning to “CTCCAACTACTGATTAGCACTCTCTCCACTCGCTTGCAAACGGAGTCACCTAGTGCAG”, the binding signal is 14500 fluorescence intensity (a.u.). In the case of “TTTGATTTGCATTCTTCGACCGCAAAACTTGGTACAAGACCGGAGTCACCTAGTGCAG”, the binding signal was 29000 fluorescence intensity (a.u.). Next, “TCAAATTCGTACATAGAAATTAATTTATTTTGGATGGAGGCGGAGTCACCTAGTGCAG”: 8240 fluorescence intensity (a.u.); “CATTTATAGCCAATTTAATAGCCAACTCATACAATAGTTGCGGAGTCACCTAGTGCAG”: 4060 fluorescence intensity (a.u.); “ACATTCCAAATAAATCAATCTACGTGATACTTCCTGATACCGGAGTCACCTAGTGCAG”: 4190 fluorescence intensity (a.u.). For the sequence “CCTAATTGGAAAGGTTCAATGTTCTCTCTGAGTGGTAGGCCGGAGTCACCTAGTGCAG”, the binding signal is 42000 fluorescence intensity (a.u.). Turning to “GTTGATTTTAGGACCTTTTATCATAGTTTATTTTCCAATCCGGAGTCACCTAGTGCAG”, the binding signal was 9410 fluorescence intensity (a.u.).

In the case of “AATCCTCTTAATTATTATTAGCGGTTCGTCCTATGATCTTCGGAGTCACCTAGTGCAG”, the binding signal was 7080 fluorescence intensity (a.u.).

Consider “GGATTAATAGAATAATCGTACCAACAAGTTGCAACTTCTTCGGAGTCACCTAGTGCAG”, for which the binding signal was 4540 fluorescence intensity (a.u.).
